Among all 50,000 compounds or so, about 800 (1.6%) showed an effect of 50% or more. The list shows a part of the results.
The compounds below were run against Bcl-2-like protein 10 (Homo sapiens) (UniProt Q9HD36) (assay: Phenotype converters, Bcl-B/TR3 peptide binding displacement, primary biochemical FP (AID 1240;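 further: 0% = Bcl-B with tracer peptide and DMSO and 100% = tracer peptide lacking Bcl-B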)). Conditions: GST-Bcl-B / FITC-TR3 peptide fluorescence polarization; stronger effect = higher value; compound at 3.75 mg/L.
UniProt Q9HD36, sequence (Q9HD36 whole entry, looked up): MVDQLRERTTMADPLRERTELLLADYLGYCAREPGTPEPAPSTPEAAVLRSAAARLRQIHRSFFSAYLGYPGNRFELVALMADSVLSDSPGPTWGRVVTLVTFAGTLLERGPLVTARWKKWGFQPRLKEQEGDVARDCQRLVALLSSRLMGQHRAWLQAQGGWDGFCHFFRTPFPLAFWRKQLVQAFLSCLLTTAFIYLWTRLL
CCCCOc1ccc(/C=N/NS(=O)(=O)c2ccc(OC)cc2)cc1OCC was tested, and the displacement was 12.4%. COc1ccc(OC)c(N/C(=N/S(=O)(=O)c2ccc(C)cc2)Nc2nc(C)cc(C)n2)c1 showed a displacement of -13.5%. Compound COc1ccc(OCC(=O)Nc2cc3oc4ccccc4c3cc2OC)cc1 has a displacement of 2.9%. In the case of COc1cc(C2CC(=O)Nc3c2ccc2ccccc32)cc(Cl)c1O (stereo not drawn), the displacement is reported as -4.3%. For Cc1ccc(OCC(=O)n2cnnc2N)cc1, the displacement was 11.9%. In the case of CCOc1cc(/C=N/Nc2nc(-c3ccccc3)cs2)ccc1O, the displacement is reported as -3.5%. COc1ccc(OC)c(N(CC(=O)Nc2ccc3ccccc3c2)S(C)(=O)=O)c1 was tested, and the displacement was 7.3%. Cn1c(=O)c2c([nH]c(=S)n2Cc2ccccc2Cl)n(C)c1=O showed a displacement of 11.6%. COc1ccc(S(=O)(=O)Nc2cccc([N+](=O)[O-])c2C)cc1 was tested, and the displacement was 1.1%. CCOC(=O)c1ccccc1NC(=O)CN(c1ccc(F)cc1)S(=O)(=O)c1ccccc1 was tested, and the displacement was 0.6%. In the case of CC(=O)N1c2ccccc2NC2=C(C(=O)CC(c3ccccc3)C2)C1c1cccc([N+](=O)[O-])c1 (stereo not drawn), the displacement is reported as -9.3%. CCOCCOC(=O)c1ccc(NC(=O)COc2ccc(C)cc2Br)cc1 was tested, and the displacement was 15.4%. O=C(Nc1ccc(N2CCCCC2)cc1)c1ccc([N+](=O)[O-])cc1 gave a displacement of 0.4%. Work on O=C1CCCc2oc3ccc(NS(=O)(=O)c4ccccc4)cc3c21 yielded a displacement of 2.5%. Cc1csc(NC(=O)c2ccc(Cl)c([N+](=O)[O-])c2)n1 gave a displacement of 4.5%. With Cc1cc(C)n2nc(C(=O)NCc3ccccc3)c(Br)c2n1 the displacement was -2%. Compound CC(=O)Nc1ccc(C(=O)N2CCN(c3ccc(F)cc3)CC2)cc1 has a displacement of 3%. For Cc1cc(Cl)ccc1OCC(=O)Nc1sc(C)c(C)c1C(N)=O, the displacement was 79.1%. CN(CCOC(=O)c1ccccc1)C1=NS(=O)(=O)c2ccccc21 gave a displacement of -6.3%. Work on Cc1nn(-c2ccccc2)c(C)c1/C=N\NC(=O)c1cc(C(C)(C)C)[nH]n1 yielded a displacement of -2%. In the case of CC(=O)Nc1ccc(S(=O)(=O)Nc2ccccc2Br)cc1, the displacement is reported as -2.9%. CCOC(=O)c1ccc(NC2=CC(=O)CC(c3ccco3)C2)cc1 (stereo not drawn) showed a displacement of -6.9%. CCOc1ccc(N(CC(=O)NC(C)CC)S(=O)(=O)c2ccc(Br)cc2)cc1 (stereo not drawn) gave a displacement of -8.1%. With COC(=O)c1c(N)sc(C)c1-c1ccccc1 the displacement was -1.2%. Compound C[C@@H]1O[C@@H](Nc2cccc3ccccc23)[C@H](O)[C@H](O)[C@H]1O has a displacement of 20.5%. COc1cc(/C=C2\SC(=S)NC2=O)ccc1OS(=O)(=O)c1ccc(C)cc1 was tested, and the displacement was -98%. In the case of CCOC(=O)c1oc2cccc(O)c2c1C, the displacement is reported as 25.9%. O=C(NC(Cc1ccccc1)Cc1ccccc1)c1ccccc1Br was tested, and the displacement was -2.1%. C/C(CC(C)C)=N\NC(=O)C(O)(c1ccccc1)c1ccccc1 was tested, and the displacement was -10.4%. CC(C)CCc1c(O)nc(SCCN2CCOCC2)n(-c2ccccc2)c1=O gave a displacement of 22.6%. Compound CCCCOc1ccc(S(=O)(=O)N=Nc2c(O)[nH]c3ccc(Br)cc23)cc1 has a displacement of -0.6%. Work on Cc1oc(/C=N/NC(=O)CN(c2ccccc2)S(=O)(=O)c2ccccc2)cc1Br yielded a displacement of -10.3%. In the case of CCOc1cc(/C=C2\SC(=S)N(/N=C/c3ccc(O)c(OCC)c3)C2=O)ccc1O, the displacement is reported as 3.8%. Work on Cc1cccc(C(=O)Nc2c(C(=O)N3CCN(C)CC3)cnn2-c2ccccc2)c1 yielded a displacement of -9.8%. O=C(Oc1ccc2c(=O)c(Oc3ccccc3Br)coc2c1)c1ccco1 gave a displacement of 9.4%. Cc1cc(C)nc(SCC(=O)Nc2ccc(Cl)cc2)n1 gave a displacement of 0.8%. Cc1ccc(C(=O)N/C(=C\c2cccc([N+](=O)[O-])c2)C(=O)N2CCCCC2)cc1 was tested, and the displacement was 5.5%. In the case of O=C1N/C(=N\N=C\c2ccc(O)cc2)SC1Cc1ccc(Br)cc1 (stereo not drawn), the displacement is reported as -27%. Work on CN(C)CCCNC(=O)c1ccc([N+](=O)[O-])o1 yielded a displacement of 5.1%. Compound CC(C)C(=O)NC(c1ccc(N(C)C)cc1)c1c(O)ccc2ccccc12 (stereo not drawn) has a displacement of 6.4%. Work on CC(C)CN1C(=O)/C(=C/c2c(F)cccc2Cl)SC1=S yielded a displacement of 6.9%. Work on COc1cc(/C=C(\C#N)C(N)=O)ccc1O yielded a displacement of 3.7%. Compound CCCOc1cccc(-c2nc3ccc(Cl)cc3c(=O)o2)c1 has a displacement of 12.1%. Compound Cc1[nH]c2ccccc2c1C=Nc1cc(Cl)cc(Cl)c1 has a displacement of 1.6%. Cc1ccc(C(=O)NCCc2nc3ccccc3[nH]2)cc1[N+](=O)[O-] showed a displacement of 17.8%. COc1ccc(C(=O)Nc2ccc(S(=O)(=O)NC(C)=O)cc2)cc1 showed a displacement of 13.1%. In the case of CCC1=NN2C(=N)/C(=C/c3ccc(-c4ccc(Cl)cc4)o3)C(=O)N=C2S1, the displacement is reported as 66.7%. CCn1ccnc1C(O)c1cccc(OC)c1 (stereo not drawn) was tested, and the displacement was 12%. In the case of COc1ccc(C(=O)Nc2ccc(Cc3ccncc3)cc2)cc1[N+](=O)[O-], the displacement is reported as -11.6%. COc1ccccc1CC(=O)Nc1ccc(F)cc1F was tested, and the displacement was 7.8%. COC(=O)c1c(C)[nH]c(/C=C2\C(=O)C=Cc3ccccc32)c1O gave a displacement of -30%. Compound Cc1ccccc1C(=O)NCCN(C)C has a displacement of 19.2%. Cc1c(OCC(=O)C(C)(C)C)ccc2c(-c3ccccc3)cc(=O)oc12 was tested, and the displacement was 8%. For C/C(=N/OCC(=O)Nc1sc2c(c1C#N)CCCC2)c1ccc(Br)cc1, the displacement was -12.2%. C/C(=C\COc1cc(=O)[nH]c2ccccc12)CCC(O)C(C)(C)O (stereo not drawn) showed a displacement of -4.5%. O=C(NCc1ccccn1)c1cc([N+](=O)[O-])cc([N+](=O)[O-])c1 was tested, and the displacement was -14.6%. Compound O=C(Nc1cccc(S(=O)(=O)c2cccc(NC(=O)c3cccs3)c2)c1)c1cccs1 has a displacement of 6.1%. Work on CCCOC(=O)Cc1c(O)c2ccccc2[nH]c1=O yielded a displacement of 2%. CC(=O)C1=C(O)C(=O)N(CCN2CCNCC2)C1c1ccc(C)cc1 (stereo not drawn) showed a displacement of 0.2%. In the case of COc1ccc(C(=O)NCCN(C)C)cc1OC, the displacement is reported as 5.2%. In the case of CCOC(=O)c1ccc(N2C(=O)c3ccc(C(=O)Nc4ccccc4C(=O)O)cc3C2=O)cc1, the displacement is reported as 10.8%. In the case of NC1=NC(=O)/C(=C/c2ccc(-c3ccc([N+](=O)[O-])cc3Br)o2)S1, the displacement is reported as -5.3%. Work on CCc1ccccc1N1C(=O)NC(=O)/C(=C\c2cc(C)n(-c3cccnc3)c2C)C1=O yielded a displacement of 11.2%. With C/C(=N/NC(=O)C1C(=O)NCC1c1ccccc1)c1ccc2c(c1)CCCC2 (stereo not drawn) the displacement was 4.2%. For CCOC(=O)CNC(c1ccccc1)c1cc(Br)ccc1NC(C)=O (stereo not drawn), the displacement was 1%. With O=C(Nc1ccc(Cl)cc1)Nc1ccc(-c2nc3ccccc3s2)cc1 the displacement was 6.5%. Oc1ccc(Br)cc1CN1CCN(C2CC3CCC2C3)CC1 (stereo not drawn) was tested, and the displacement was 3.5%. Work on CCOC(=O)C1=C(C)N=c2s/c(=C\c3ccc4c(c3)OCO4)c(=O)n2C1c1ccc(OC(C)=O)cc1 (stereo not drawn) yielded a displacement of -50.4%.

Reference: PubChem BioAssay AID1240 (Sanford-Burnham Center for Chemical Genomics, 2008)
